For 39 sequences, binding signal results are on record in publication PMC5700166.

The entries are a selection whose mix differs from that of the whole data set. The list includes weakly bound sequences.

This experiment deals with T1, GST-Co-NF-kB (UniProt F1ARL5).
T1 sequence: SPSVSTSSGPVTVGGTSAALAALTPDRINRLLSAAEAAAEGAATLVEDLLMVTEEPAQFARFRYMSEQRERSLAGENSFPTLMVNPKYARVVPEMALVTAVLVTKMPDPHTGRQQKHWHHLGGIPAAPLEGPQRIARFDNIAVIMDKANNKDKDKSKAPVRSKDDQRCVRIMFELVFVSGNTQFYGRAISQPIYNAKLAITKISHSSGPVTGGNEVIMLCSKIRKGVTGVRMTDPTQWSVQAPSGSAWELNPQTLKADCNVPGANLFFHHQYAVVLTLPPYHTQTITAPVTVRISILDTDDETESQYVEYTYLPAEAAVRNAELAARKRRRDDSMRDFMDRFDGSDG
As to the kind of experiment: protein-binding microarray (PBM). The following applies: PBM: ~300 nM protein, 6 mM HEPES pH 7.8, 80 mM KCl, 0.5 mM EDTA, 0.5 mM EGTA, 6% glycerol, 35 ng/ul poly-dIdC, 1% milk, 1 h, room temperature; Ap Aiptasia and Nv Nematostella (sea anemones) / Co Capsaspora / Aq Amphimedon (sponge) / Dm Drosophila / Hu human; RHD is the Rel homology domain; high values mean tight binding; most listed sequences are background and not binding sites; double strand, one strand shown.
Consider “CCGATTAACATCAGGTGTTTCCATGATGTTAATCGGGTCTTGATTCGCTTGACGCTGCTG”, for which the binding signal is -0.357 z-score. As to “CCGATTAACATCACATTTTCCCCTGATGTTAATCGGGTCTTGATTCGCTTGACGCTGCTG”, the binding signal was 9.7 z-score. For “CCGATTAACATCAGGGAATCTCATGATGTTAATCGGGTCTTGATTCGCTTGACGCTGCTG”, the binding signal is 1.96 z-score. The sequence “CCGATTAACATCAGAGAAGTCCCTGATGTTAATCGGGTCTTGATTCGCTTGACGCTGCTG” registered a binding signal of 0.312 z-score.

With “CCGATTAACATCAGGGGGTTTGATGATGTTAATCGGGTCTTGATTCGCTTGACGCTGCTG”, the binding signal is 1.61 z-score.

“CCGATTAACATCACCGTTCCCCCTGATGTTAATCGGGTCTTGATTCGCTTGACGCTGCTG” registered a binding signal of 6.76 z-score.

In turn, “CCGATTAACATCATGGGGGGAAATGATGTTAATCGGGTCTTGATTCGCTTGACGCTGCTG” displayed a binding signal of 9.84 z-score. On to “CCGATTAACATCAGGGGGTTAGATGATGTTAATCGGGTCTTGATTCGCTTGACGCTGCTG”, for which the binding signal came out at 1.94 z-score. Take “CCGATTAACATCAGGGCATTACCTGATGTTAATCGGGTCTTGATTCGCTTGACGCTGCTG”: the binding signal is -0.121 z-score. For the sequence “CCGATTAACATCAGGGTATTCCATGATGTTAATCGGGTCTTGATTCGCTTGACGCTGCTG”, the binding signal came to 1.19 z-score. In the case of “CCGATTAACATCAACCTCCCCCCTGATGTTAATCGGGTCTTGATTCGCTTGACGCTGCTG”, the binding signal amounted to 6.38 z-score. “CCGATTAACATCAAGAAGTTCCCTGATGTTAATCGGGTCTTGATTCGCTTGACGCTGCTG” registered a binding signal of 2.42 z-score. As for “CCGATTAACATCAGGGATTGCCCTGATGTTAATCGGGTCTTGATTCGCTTGACGCTGCTG”, the figure is 0.903 z-score; as for “CCGATTAACATCAATTCCCAAGGTGATGTTAATCGGGTCTTGATTCGCTTGACGCTGCTG”, 2.02 z-score. Take “CCGATTAACATCAGGGAAACCACTGATGTTAATCGGGTCTTGATTCGCTTGACGCTGCTG”: the binding signal stood at 3.12 z-score. “CCGATTAACATCAGGGGCTTCACTGATGTTAATCGGGTCTTGATTCGCTTGACGCTGCTG” yielded a binding signal of 0.637 z-score. “CCGATTAACATCACGGCATTCCCTGATGTTAATCGGGTCTTGATTCGCTTGACGCTGCTG”: the binding signal amounted to 1.73 z-score. In the case of “CCGATTAACATCACGGAAAACCCTGATGTTAATCGGGTCTTGATTCGCTTGACGCTGCTG”, the binding signal stood at 0.353 z-score. As to “CCGATTAACATCAGGAACTACCCTGATGTTAATCGGGTCTTGATTCGCTTGACGCTGCTG”, the binding signal was 1.33 z-score.

Turning to “CCGATTAACATCAGGAACTCCCCTGATGTTAATCGGGTCTTGATTCGCTTGACGCTGCTG”, the binding signal is 3.87 z-score. “CCGATTAACATCACTACTTTCCCTGATGTTAATCGGGTCTTGATTCGCTTGACGCTGCTG”: the binding signal came out at 3.41 z-score. As for “CCGATTAACATCACGGGGGGGAATGATGTTAATCGGGTCTTGATTCGCTTGACGCTGCTG”, the figure is 9.46 z-score; as for “CCGATTAACATCAGGTAATCACCTGATGTTAATCGGGTCTTGATTCGCTTGACGCTGCTG”, -1.08 z-score. “CCGATTAACATCAGGCCTCCCCCTGATGTTAATCGGGTCTTGATTCGCTTGACGCTGCTG” returned a binding signal of 4.14 z-score.

Sequence “CCGATTAACATCAGGGGGTGGGATGATGTTAATCGGGTCTTGATTCGCTTGACGCTGCTG” showed a binding signal of 3.22 z-score. As for “CCGATTAACATCAGAGAAGCCCCTGATGTTAATCGGGTCTTGATTCGCTTGACGCTGCTG”, the figure is 0.0981 z-score. For “CCGATTAACATCAAAGTCCCCCGTGATGTTAATCGGGTCTTGATTCGCTTGACGCTGCTG” the value was 6.7 z-score; for “CCGATTAACATCACATCCCCCCCTGATGTTAATCGGGTCTTGATTCGCTTGACGCTGCTG”, 6.54 z-score. Regarding “CCGATTAACATCAGGGATTCCACTGATGTTAATCGGGTCTTGATTCGCTTGACGCTGCTG”, the binding signal was 0.567 z-score. “CCGATTAACATCACCCACTCCCCTGATGTTAATCGGGTCTTGATTCGCTTGACGCTGCTG” registered a binding signal of 2.82 z-score. With “CCGATTAACATCAAAACACCCCTTGATGTTAATCGGGTCTTGATTCGCTTGACGCTGCTG”, the binding signal was determined as 2 z-score.

Sequence “CCGATTAACATCAACCCTCCCCCTGATGTTAATCGGGTCTTGATTCGCTTGACGCTGCTG” gave a binding signal of 4.5 z-score. In turn, “CCGATTAACATCAAATTTCCCCGTGATGTTAATCGGGTCTTGATTCGCTTGACGCTGCTG” returned a binding signal of 9.87 z-score. “CCGATTAACATCAGAAATATCCCTGATGTTAATCGGGTCTTGATTCGCTTGACGCTGCTG” had a binding signal of 1.62 z-score. As for “CCGATTAACATCAAATTCCCAATTGATGTTAATCGGGTCTTGATTCGCTTGACGCTGCTG”, the figure is 2.62 z-score; as for “CCGATTAACATCACTAAACCCCCTGATGTTAATCGGGTCTTGATTCGCTTGACGCTGCTG”, 3.32 z-score.

For “CCGATTAACATCAGGCATTCCCATGATGTTAATCGGGTCTTGATTCGCTTGACGCTGCTG”, the binding signal came to 1.54 z-score.

The sequence “CCGATTAACATCAAGGGGGGGTATGATGTTAATCGGGTCTTGATTCGCTTGACGCTGCTG” returned a binding signal of 5.09 z-score.

“CCGATTAACATCAGGGATCACCCTGATGTTAATCGGGTCTTGATTCGCTTGACGCTGCTG” showed a binding signal of 1.02 z-score.
